Experimental data from PMC4299599, “Quantification of cytosolic interactions identifies Ede1 oligomers as key organizers of endocytosis” (Molecular Systems Biology, 2014).

Biological target: T1, Sla1 (S. cerevisiae, UniProt P32790 1-1244)
T1 construct: Sla1, S. cerevisiae; Each copy carries one of the two tags; source: S. cerevisiae, chromosomally tagged at the endogenous locus, in living cells; not shown: 3myeGFP, C-terminal, kept; 3mCherry, C-terminal, kept
T1 sequence (looked up): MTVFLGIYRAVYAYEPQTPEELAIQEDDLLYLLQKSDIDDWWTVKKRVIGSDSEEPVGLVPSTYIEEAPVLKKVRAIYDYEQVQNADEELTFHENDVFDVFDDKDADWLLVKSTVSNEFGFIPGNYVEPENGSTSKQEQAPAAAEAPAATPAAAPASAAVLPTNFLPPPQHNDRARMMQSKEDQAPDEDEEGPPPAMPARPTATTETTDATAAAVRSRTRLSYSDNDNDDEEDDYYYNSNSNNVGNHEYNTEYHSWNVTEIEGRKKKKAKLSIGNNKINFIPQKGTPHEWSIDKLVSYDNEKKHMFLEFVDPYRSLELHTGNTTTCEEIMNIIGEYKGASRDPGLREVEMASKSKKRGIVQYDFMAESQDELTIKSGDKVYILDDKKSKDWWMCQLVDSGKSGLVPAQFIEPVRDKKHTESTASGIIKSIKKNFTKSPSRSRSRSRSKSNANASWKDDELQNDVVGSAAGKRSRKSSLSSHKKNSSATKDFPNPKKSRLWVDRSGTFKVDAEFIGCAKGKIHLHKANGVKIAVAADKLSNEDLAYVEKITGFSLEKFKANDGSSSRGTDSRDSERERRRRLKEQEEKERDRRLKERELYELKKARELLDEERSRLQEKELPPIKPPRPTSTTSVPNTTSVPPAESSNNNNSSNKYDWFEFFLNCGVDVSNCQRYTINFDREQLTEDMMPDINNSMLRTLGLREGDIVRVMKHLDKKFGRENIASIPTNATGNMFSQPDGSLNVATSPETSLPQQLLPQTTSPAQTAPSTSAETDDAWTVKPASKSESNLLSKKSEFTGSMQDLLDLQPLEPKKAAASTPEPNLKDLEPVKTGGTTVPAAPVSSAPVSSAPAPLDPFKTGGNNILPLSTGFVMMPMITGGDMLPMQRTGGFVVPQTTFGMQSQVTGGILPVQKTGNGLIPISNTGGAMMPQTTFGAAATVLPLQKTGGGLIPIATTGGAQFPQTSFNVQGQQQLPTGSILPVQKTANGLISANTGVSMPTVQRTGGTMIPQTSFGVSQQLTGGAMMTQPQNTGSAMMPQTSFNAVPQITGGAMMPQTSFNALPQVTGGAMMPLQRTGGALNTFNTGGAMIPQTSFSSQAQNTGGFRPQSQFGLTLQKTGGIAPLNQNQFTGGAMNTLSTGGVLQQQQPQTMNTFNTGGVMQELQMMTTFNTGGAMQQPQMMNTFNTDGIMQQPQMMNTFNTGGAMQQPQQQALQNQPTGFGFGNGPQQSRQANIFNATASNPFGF
Assay: fluorescence cross-correlation spectroscopy (FCCS); living yeast cells, observation volume in the cytoplasm; one protein tagged with (3)myeGFP/eGFP and the other with 3mCherry in the same strain; apparent (effective) KD; interactions up to ~1 μM detectable
Settings: partners not purified

B1: Las17 (natural protein)
chain: not shown
notes: Fused to single myeGFP instead of 3myeGFP; Each copy carries one of the two tags; also called Wiskott–Aldrich syndrome protein (WASP) Las17; source: S. cerevisiae, chromosomally tagged at the endogenous locus, in living cells; not shown: myeGFP (single), C-terminal, kept; 3mCherry, C-terminal, kept
Binder B1 has a Kd of 286 nM.
